In the supplement of paper PMC12217912:
Some of the results follow. Sequences were assembled here from the parent chain. Values near 0.05 are background.

B1: TEV protease; numbered along this chain (parent)
chain: MGESLFKGPRDYNPISSSICHLTNESDGHTTSLYGIGFGPFIITNKHLFRRNNGTLVVQSLHGVFKVKDTTTLQQHLVDGRDMIIIRMPKDFPPFPQKLKFREPQREERICLVTTNFQTKSMSSMVSDTSCTFPSGDGIFWKHWIQTKDGQCGSPLVSTRDGFIVGIHSASNFTNTNNYFTSVPKNFMELLTNQEAQQWVSGWRLNADSVLWGGHKVFMVKPEEPFQPVKEATQL

Variants of: B1
Experiment: raw area under fraction-flipped curve 0-4 h after induction (AUC4h, not background-subtracted), DNA-recorder readout of cleavage of the substrate (dimensionless); higher = more cleavage of the substrate by the protease variant
Conditions: temperature: 34 °C; time window: 0-4 h after rhamnose induction
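Note: Bxb1 expression induced with 0.2% (w/v) L-rhamnose at OD600 near 0.5, cultures sampled hourly, flipped fraction per protease–substrate barcode pair counted by paired-end Illumina sequencing.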

Row | Variant | area with substrate ENLYEQS | area with substrate ENLYHQS | area with substrate ENLYMQS | area with substrate ENLYNQS | area with substrate ENLYPQS | area with substrate ENLYTQS | area with substrate ENLYYQS | area with substrate ENLYGQS | area with substrate ENLYIQS | area with substrate ENLYKQS | area with substrate ENLYRQS | area with substrate ENLYVQS | area with substrate ENLYSQS | area with substrate ENLYWQS | area with substrate ENLYQQS | area with substrate ENLYLQS
1 | Q197T | 0.0609 | 0.0829 | 0.08 | 0.0604 | 0.0687 | 0.0959 | 0.0678 | – | – | – | – | – | – | – | – | –
2 | W203I | 0.0647 | 0.0588 | 0.0612 | – | 0.0656 | – | 0.0496 | 0.0596 | 0.0471 | 0.0632 | 0.0555 | – | – | – | – | –
3 | A207G | 0.0723 | 0.0765 | 0.0922 | 0.0782 | – | 0.121 | – | 0.0698 | 0.134 | – | 0.0672 | 0.115 | – | – | – | –
4 | L211A | 0.0551 | 0.0726 | 0.095 | 0.0812 | 0.0292 | – | – | – | 0.116 | 0.0721 | – | – | 0.0823 | 0.0736 | – | –
5 | V217F | 0.0668 | 0.0762 | 0.0602 | 0.0588 | – | – | – | 0.0783 | – | – | 0.0734 | – | 0.0771 | 0.035 | 0.0587 | –
6 | V217S | 0.0515 | 0.0514 | – | 0.0723 | 0.0559 | – | 0.0544 | 0.046 | – | 0.0679 | 0.0603 | 0.0541 | 0.0575 | 0.0573 | 0.0782 | 0.0373
7 | E224G | 0.0913 | – | – | – | – | – | 0.0726 | 0.0573 | 0.0881 | 0.0471 | 0.0538 | – | 0.0677 | 0.0661 | – | 0.0856
8 | P225Q | 0.073 | – | 0.0827 | 0.0579 | – | – | 0.0921 | 0.0715 | 0.154 | – | 0.0669 | 0.0575 | – | 0.0751 | 0.0729 | –
9 | Q234A | 0.105 | 0.0844 | – | 0.0714 | 0.0592 | – | – | 0.0565 | 0.116 | – | 0.0532 | – | – | 0.087 | 0.062 | –
10 | L235K | 0.051 | – | 0.092 | 0.0708 | 0.0731 | – | – | – | 0.146 | 0.05 | – | 0.125 | 0.0718 | 0.0884 | – | 0.0992
11 | L73K | – | 0.0601 | 0.0505 | 0.0312 | – | – | – | 0.0669 | 0.0502 | 0.0179 | 0.0615 | 0.0568 | – | 0.08 | – | –
12 | F140T | – | 0.0544 | – | 0.0735 | 0.0447 | – | – | 0.0655 | 0.107 | 0.0394 | – | – | 0.069 | 0.0419 | – | 0.0715
13 | T159D | – | 0.0848 | – | – | – | – | – | 0.0364 | – | 0.0842 | 0.0822 | – | – | – | – | –
14 | T159N | – | 0.0563 | 0.0704 | – | – | – | – | 0.0675 | 0.107 | – | – | 0.141 | – | 0.0789 | 0.0589 | –
15 | S171Q | – | 0.0418 | – | 0.0681 | – | – | – | 0.0381 | 0.0777 | – | 0.0722 | – | – | 0.0485 | – | –
16 | N116H | – | 0.0637 | – | – | 0.0744 | 0.0932 | – | – | 0.117 | – | – | 0.105 | – | – | 0.0615 | 0.0783
17 | M125I | – | 0.0435 | – | 0.0691 | 0.0664 | – | – | – | – | – | – | 0.127 | – | – | 0.0657 | 0.124
18 | R160L | – | 0.0608 | 0.0977 | – | – | – | 0.0535 | – | – | 0.069 | 0.0663 | – | – | 0.0806 | – | –
19 | S171A | – | 0.0865 | 0.0829 | – | 0.0717 | – | – | – | 0.107 | 0.0737 | 0.0563 | 0.0926 | – | – | – | –
20 | N178D | – | 0.0928 | 0.0607 | – | 0.0519 | – | – | – | – | 0.0655 | 0.0459 | – | 0.0733 | 0.0549 | 0.0572 | –
